Results are given in words; binding and its absence hold for the method and conditions named. In cells and extracts the contact can be indirect. Some results given as binding are weak or reduced against the parent protein; the word gives no strength. For some assays here: Sequences can lack the tags named with a protein.
Columns and labels:
[1] = biological target: T1, PLCγ1, endogenous in HuAR2T endothelial cells (human (endogenous in HuAR2T)) (UniProt P19174); assay: co-IP; endogenous PLCγ1 immunoprecipitated with anti-PLCγ1 antibody and protein A sepharose from pre-cleared HuAR2T rKSHV.219 lysate, with or without induction of the lytic cycle; western blot
T1 sequence: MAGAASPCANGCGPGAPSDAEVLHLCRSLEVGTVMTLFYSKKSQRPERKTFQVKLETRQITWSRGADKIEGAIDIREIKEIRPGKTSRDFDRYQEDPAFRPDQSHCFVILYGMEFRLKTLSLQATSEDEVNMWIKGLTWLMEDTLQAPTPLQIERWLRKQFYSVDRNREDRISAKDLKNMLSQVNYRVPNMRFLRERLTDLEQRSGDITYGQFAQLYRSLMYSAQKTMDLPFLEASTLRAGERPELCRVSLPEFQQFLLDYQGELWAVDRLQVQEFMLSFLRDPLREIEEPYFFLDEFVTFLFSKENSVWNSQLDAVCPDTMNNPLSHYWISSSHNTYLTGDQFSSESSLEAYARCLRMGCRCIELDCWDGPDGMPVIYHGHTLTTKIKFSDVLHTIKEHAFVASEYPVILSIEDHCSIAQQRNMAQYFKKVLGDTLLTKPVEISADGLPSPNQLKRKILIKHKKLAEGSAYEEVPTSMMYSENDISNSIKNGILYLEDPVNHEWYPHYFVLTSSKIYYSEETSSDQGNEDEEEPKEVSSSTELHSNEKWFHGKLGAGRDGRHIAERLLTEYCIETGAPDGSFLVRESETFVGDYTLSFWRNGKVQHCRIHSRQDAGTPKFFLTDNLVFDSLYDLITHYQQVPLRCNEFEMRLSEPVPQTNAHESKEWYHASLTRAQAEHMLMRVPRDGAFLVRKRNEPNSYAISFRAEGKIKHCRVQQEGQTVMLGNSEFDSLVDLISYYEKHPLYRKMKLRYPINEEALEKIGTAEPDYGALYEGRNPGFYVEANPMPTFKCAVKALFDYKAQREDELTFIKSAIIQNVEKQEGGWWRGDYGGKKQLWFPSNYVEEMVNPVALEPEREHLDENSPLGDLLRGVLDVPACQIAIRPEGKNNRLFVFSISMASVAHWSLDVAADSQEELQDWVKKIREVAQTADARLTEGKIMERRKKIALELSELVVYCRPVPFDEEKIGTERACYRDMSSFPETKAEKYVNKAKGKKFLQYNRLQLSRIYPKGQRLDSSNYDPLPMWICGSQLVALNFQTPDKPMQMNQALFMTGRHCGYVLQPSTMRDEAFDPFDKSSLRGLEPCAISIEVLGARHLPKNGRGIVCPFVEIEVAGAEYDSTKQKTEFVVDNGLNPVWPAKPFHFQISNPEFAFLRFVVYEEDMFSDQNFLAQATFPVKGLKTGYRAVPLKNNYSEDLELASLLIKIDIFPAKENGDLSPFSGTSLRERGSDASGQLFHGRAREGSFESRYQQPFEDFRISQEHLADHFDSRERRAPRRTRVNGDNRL

[2] = biological target: T2, GST-K15P cytoplasmic domain (aa 347-489) (Kaposi's sarcoma herpesvirus (KSHV, HHV-8)) (UniProt Q9QR69); assay: pull-down; competition: GST-K15P cytoplasmic domain on beads pulls down endogenous PLCγ1, GIT1 and cdc42 from lysates of HEK293T transfected with 0.5, 1 or 2 μg of PLCγ2 cSH2 plasmid; western blot; only the target purified
T2 sequence: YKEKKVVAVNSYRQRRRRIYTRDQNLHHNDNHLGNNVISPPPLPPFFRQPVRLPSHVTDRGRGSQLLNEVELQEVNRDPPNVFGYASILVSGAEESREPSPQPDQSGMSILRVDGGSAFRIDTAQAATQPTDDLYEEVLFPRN

[3] = biological target: T3, S-tagged PLCγ1 wt (UniProt P19174); assay: co-IP; HEK293T co-transfected; lysed in IP buffer (150 mM NaCl, 25 mM tris HCl pH 7.6, 1 mM EDTA, 1% glycerol, 0.2% NP-40); S-tagged construct captured on S protein agarose beads overnight at 4°C; western blot
T3 sequence: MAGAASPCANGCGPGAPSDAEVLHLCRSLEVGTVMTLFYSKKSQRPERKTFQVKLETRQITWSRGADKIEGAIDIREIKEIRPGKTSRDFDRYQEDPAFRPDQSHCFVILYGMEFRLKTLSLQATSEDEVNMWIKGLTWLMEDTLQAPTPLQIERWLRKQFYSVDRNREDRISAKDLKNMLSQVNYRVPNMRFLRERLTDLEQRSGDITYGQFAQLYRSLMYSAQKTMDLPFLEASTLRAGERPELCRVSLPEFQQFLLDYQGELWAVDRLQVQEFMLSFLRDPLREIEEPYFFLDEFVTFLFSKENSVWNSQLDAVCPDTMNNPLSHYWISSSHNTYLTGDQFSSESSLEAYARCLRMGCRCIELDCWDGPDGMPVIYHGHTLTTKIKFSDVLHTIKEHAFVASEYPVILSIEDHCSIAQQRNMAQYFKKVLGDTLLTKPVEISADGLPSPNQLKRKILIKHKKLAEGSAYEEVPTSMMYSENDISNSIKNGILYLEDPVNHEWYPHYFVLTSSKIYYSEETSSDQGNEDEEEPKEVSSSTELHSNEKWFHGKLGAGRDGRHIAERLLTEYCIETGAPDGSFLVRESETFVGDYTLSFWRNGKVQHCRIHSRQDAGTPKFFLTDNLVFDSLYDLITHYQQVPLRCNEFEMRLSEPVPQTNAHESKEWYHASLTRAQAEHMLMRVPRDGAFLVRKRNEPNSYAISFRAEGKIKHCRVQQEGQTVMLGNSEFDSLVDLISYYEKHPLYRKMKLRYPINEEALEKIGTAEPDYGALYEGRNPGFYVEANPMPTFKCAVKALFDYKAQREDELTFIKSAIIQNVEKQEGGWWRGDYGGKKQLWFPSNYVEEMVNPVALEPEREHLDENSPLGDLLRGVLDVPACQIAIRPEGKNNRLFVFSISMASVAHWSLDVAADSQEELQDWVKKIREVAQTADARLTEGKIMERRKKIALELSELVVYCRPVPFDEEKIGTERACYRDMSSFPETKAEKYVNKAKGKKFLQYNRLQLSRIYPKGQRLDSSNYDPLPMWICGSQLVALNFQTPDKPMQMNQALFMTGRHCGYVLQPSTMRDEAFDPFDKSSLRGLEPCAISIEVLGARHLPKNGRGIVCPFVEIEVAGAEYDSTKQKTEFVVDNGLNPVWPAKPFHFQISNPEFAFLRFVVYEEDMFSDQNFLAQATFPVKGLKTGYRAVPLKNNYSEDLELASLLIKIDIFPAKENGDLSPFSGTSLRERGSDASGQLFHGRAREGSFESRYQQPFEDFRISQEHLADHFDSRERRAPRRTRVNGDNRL

[4] = biological target: S-tagged PLCγ1 R586L (UniProt P19174); assay: as above
[5] = biological target: T2, GST-K15P cytoplasmic domain (aa 347-489) (Kaposi's sarcoma herpesvirus (KSHV, HHV-8)); assay: pull-down; GST-K15P cytoplasmic domain on glutathione beads incubated overnight at 4°C with pre-cleared lysate of HEK293T transfected with PLCγ2 constructs; western blot; only the target purified

B1: KSHV K15 protein expressed from the viral genome in KSHV infected endothelial cells (protein, UniProt Q9QR69 27-489)
chain: VTTNSIDTMASLLVMCILFVSAINKYTQAISSNNPKWPSSWHLGIIACIVLKLWNLSTTNSVTYACLITTAILSLVTAFLTLIKHCTACKLQLEHGILFTSTFAVLMTNMLVHMSNTWQSSWIFFPISFTLSLPFLYAFATVKTGNIKLVSSVSFICAGLVMGYPVSCCKTHTCTATAAGLSLSSIYLGFTGIISTLHKSWAPPKRGILTFLLLQGGVLTTQTLTTELLAITSTTGNIKGHEILLLVCLIFLWCLYVWQSFNKASLVTGMLHLIAAWSHTGGCVQLVMLLPSGLTRGILTMIICISTLFSTLQGLLVFYLYKEKKVVAVNSYRQRRRRIYTRDQNLHHNDNHLGNNVISPPPLPPFFRQPVRLPSHVTDRGRGSQLLNEVELQEVNRDPPNVFGYASILVSGAEESREPSPQPDQSGMSILRVDGGSAFRIDTAQAATQPTDDLYEEVLFPRN
- binding [1]: binds

B2: PLCγ1, endogenous in HEK293T cells (enzyme, UniProt P19174 1-1290)
chain: MAGAASPCANGCGPGAPSDAEVLHLCRSLEVGTVMTLFYSKKSQRPERKTFQVKLETRQITWSRGADKIEGAIDIREIKEIRPGKTSRDFDRYQEDPAFRPDQSHCFVILYGMEFRLKTLSLQATSEDEVNMWIKGLTWLMEDTLQAPTPLQIERWLRKQFYSVDRNREDRISAKDLKNMLSQVNYRVPNMRFLRERLTDLEQRSGDITYGQFAQLYRSLMYSAQKTMDLPFLEASTLRAGERPELCRVSLPEFQQFLLDYQGELWAVDRLQVQEFMLSFLRDPLREIEEPYFFLDEFVTFLFSKENSVWNSQLDAVCPDTMNNPLSHYWISSSHNTYLTGDQFSSESSLEAYARCLRMGCRCIELDCWDGPDGMPVIYHGHTLTTKIKFSDVLHTIKEHAFVASEYPVILSIEDHCSIAQQRNMAQYFKKVLGDTLLTKPVEISADGLPSPNQLKRKILIKHKKLAEGSAYEEVPTSMMYSENDISNSIKNGILYLEDPVNHEWYPHYFVLTSSKIYYSEETSSDQGNEDEEEPKEVSSSTELHSNEKWFHGKLGAGRDGRHIAERLLTEYCIETGAPDGSFLVRESETFVGDYTLSFWRNGKVQHCRIHSRQDAGTPKFFLTDNLVFDSLYDLITHYQQVPLRCNEFEMRLSEPVPQTNAHESKEWYHASLTRAQAEHMLMRVPRDGAFLVRKRNEPNSYAISFRAEGKIKHCRVQQEGQTVMLGNSEFDSLVDLISYYEKHPLYRKMKLRYPINEEALEKIGTAEPDYGALYEGRNPGFYVEANPMPTFKCAVKALFDYKAQREDELTFIKSAIIQNVEKQEGGWWRGDYGGKKQLWFPSNYVEEMVNPVALEPEREHLDENSPLGDLLRGVLDVPACQIAIRPEGKNNRLFVFSISMASVAHWSLDVAADSQEELQDWVKKIREVAQTADARLTEGKIMERRKKIALELSELVVYCRPVPFDEEKIGTERACYRDMSSFPETKAEKYVNKAKGKKFLQYNRLQLSRIYPKGQRLDSSNYDPLPMWICGSQLVALNFQTPDKPMQMNQALFMTGRHCGYVLQPSTMRDEAFDPFDKSSLRGLEPCAISIEVLGARHLPKNGRGIVCPFVEIEVAGAEYDSTKQKTEFVVDNGLNPVWPAKPFHFQISNPEFAFLRFVVYEEDMFSDQNFLAQATFPVKGLKTGYRAVPLKNNYSEDLELASLLIKIDIFPAKENGDLSPFSGTSLRERGSDASGQLFHGRAREGSFESRYQQPFEDFRISQEHLADHFDSRERRAPRRTRVNGDNRL
- binding [2]: binds

B3: K15P wt (protein, UniProt Q9QR69 27-489)
chain: VTTNSIDTMASLLVMCILFVSAINKYTQAISSNNPKWPSSWHLGIIACIVLKLWNLSTTNSVTYACLITTAILSLVTAFLTLIKHCTACKLQLEHGILFTSTFAVLMTNMLVHMSNTWQSSWIFFPISFTLSLPFLYAFATVKTGNIKLVSSVSFICAGLVMGYPVSCCKTHTCTATAAGLSLSSIYLGFTGIISTLHKSWAPPKRGILTFLLLQGGVLTTQTLTTELLAITSTTGNIKGHEILLLVCLIFLWCLYVWQSFNKASLVTGMLHLIAAWSHTGGCVQLVMLLPSGLTRGILTMIICISTLFSTLQGLLVFYLYKEKKVVAVNSYRQRRRRIYTRDQNLHHNDNHLGNNVISPPPLPPFFRQPVRLPSHVTDRGRGSQLLNEVELQEVNRDPPNVFGYASILVSGAEESREPSPQPDQSGMSILRVDGGSAFRIDTAQAATQPTDDLYEEVLFPRN
- binding [3]: binds
- binding [4]: binds

B4: full length PLCγ2 (enzyme, UniProt P16885 1-1265)
chain: MSTTVNVDSLAEYEKSQIKRALELGTVMTVFSFRKSTPERRTVQVIMETRQVAWSKTADKIEGFLDIMEIKEIRPGKNSKDFERAKAVRQKEDCCFTILYGTQFVLSTLSLAADSKEDAVNWLSGLKILHQEAMNASTPTIIESWLRKQIYSVDQTRRNSISLRELKTILPLINFKVSSAKFLKDKFVEIGAHKDELSFEQFHLFYKKLMFEQQKSILDEFKKDSSVFILGNTDRPDASAVYLHDFQRFLIHEQQEHWAQDLNKVRERMTKFIDDTMRETAEPFLFVDEFLTYLFSRENSIWDEKYDAVDMQDMNNPLSHYWISSSHNTYLTGDQLRSESSPEAYIRCLRMGCRCIELDCWDGPDGKPVIYHGWTRTTKIKFDDVVQAIKDHAFVTSSFPVILSIEEHCSVEQQRHMAKAFKEVFGDLLLTKPTEASADQLPSPSQLREKIIIKHKKLGPRGDVDVNMEDKKDEHKQQGELYMWDSIDQKWTRHYCAIADAKLSFSDDIEQTMEEEVPQDIPPTELHFGEKWFHKKVEKRTSAEKLLQEYCMETGGKDGTFLVRESETFPNDYTLSFWRSGRVQHCRIRSTMEGGTLKYYLTDNLTFSSIYALIQHYRETHLRCAEFELRLTDPVPNPNPHESKPWYYDSLSRGEAEDMLMRIPRDGAFLIRKREGSDSYAITFRARGKVKHCRINRDGRHFVLGTSAYFESLVELVSYYEKHSLYRKMRLRYPVTPELLERYNMERDINSLYDVSRMYVDPSEINPSMPQRTVKALYDYKAKRSDELSFCRGALIHNVSKEPGGWWKGDYGTRIQQYFPSNYVEDISTADFEELEKQIIEDNPLGSLCRGILDLNTYNVVKAPQGKNQKSFVFILEPKQQGDPPVEFATDRVEELFEWFQSIREITWKIDTKENNMKYWEKNQSIAIELSDLVVYCKPTSKTKDNLENPDFREIRSFVETKADSIIRQKPVDLLKYNQKGLTRVYPKGQRVDSSNYDPFRLWLCGSQMVALNFQTADKYMQMNHALFSLNGRTGYVLQPESMRTEKYDPMPPESQRKILMTLTVKVLGARHLPKLGRSIACPFVEVEICGAEYDNNKFKTTVVNDNGLSPIWAPTQEKVTFEIYDPNLAFLRFVVYEEDMFSDPNFLAHATYPIKAVKSGFRSVPLKNGYSEDIELASLLVFCEMRPVLESEEELYSSCRQLRRRQEELNNQLFLYDTHQNLRNANRDALVKEFSVNENQLQLYQEKCNKRLREKRVSNSKFYS
- binding [5]: no binding
